Results reported in the supplement of paper PMC5895741.

B1: MS2 coat protein; the commonest letter at each place (parent)
chain: MASNFTQFVLVDNGGTGDVTVAPSNFANGVAEWISSNSRSQAYKVTCSVRQSSAQNRKYTIKVEVPKVATQTVGGVELPVAAWRSYLNMELTIPIFATNSDCELIVKAMQGLLKDGNPIPSAIAANSGIY

Variants of: B1
Assay: apparent fitness score (VLP assembly selection enrichment vs plasmid library) (log10 ratio); higher = better expression / assembly into well-formed VLPs
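Also: counts from Illumina MiSeq reads, cDNA of packaged RNA versus plasmid DNA taken before selection, each replicate independent from library construction onward, expression induced with 0.1% arabinose.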

Row | Variant | apparent fitness score (log10)
1 | R39A | < -4
2 | R39C | 0.716
3 | N37T | 0.652
4 | N37K | -0.223
5 | N37W | < -4
6 | V106L | -0.34
7 | V106D | 0.307
8 | E32T | -1.28
9 | E32F | -0.942
10 | E32I | < -4
11 | E77Q | 0.551
12 | E77D | 0.278
13 | L10M | -0.243
14 | S35W | < -4
15 | P120S | -0.526
16 | G75E | -0.571
17 | K67I | -0.99
18 | K67G | -1.57
19 | K67P | < -4
20 | K67S | < -4
21 | K67E | < -4
22 | S100M | 0.4
23 | G29R | 0.194
24 | G29H | < -4

Row | Variant | apparent fitness score (log10)
25 | L87C | 0.422
26 | L87W | 0.528
27 | L87A | -0.907
28 | P94Y | -0.999
29 | C102A | -1.5
30 | C102I | -0.897
31 | C102K | -0.871
32 | C102M | -1.17
33 | T72S | 0.627
34 | T72E | -0.645
35 | T72D | -0.368
36 | E64S | 0.697
37 | E64D | 0.231
38 | E64A | 0.744
39 | E64Q | 0.474
40 | E64C | 0.033
41 | E64V | -0.176
42 | V30R | -1.37
43 | V30L | < -4
44 | T60H | 0.214
45 | T60G | -1.14
46 | G116S | -1.37
47 | G116W | -0.771
48 | L112Q | < -4

Row | Variant | apparent fitness score (log10)
49 | K58V | -1.16
50 | K58H | -1.16
51 | K58S | -0.43
52 | A81G | -2.04
53 | A81R | -1.31
54 | D115S | 0.866
55 | D115N | 1.04
56 | D115L | -0.718
57 | D115C | -1.28
58 | Q41M | < -4
59 | Q41R | 0.0347
60 | Q41E | -1.18
61 | T70V | 0.379
62 | T70G | -0.138
63 | T70R | -0.00338
64 | M89D | -1.02
65 | M89W | -0.629
66 | M89E | -0.941
67 | K62N | -0.87
68 | K62G | -0.747
69 | K62H | 0.266
70 | P23Q | < -4
71 | P23W | -0.963
72 | K44S | -1.03

Row | Variant | apparent fitness score (log10)
73 | K44I | -0.541
74 | K44P | < -4
75 | K44G | -1.64
76 | S121A | 0.648
77 | S121L | 0.903
78 | S121E | 0.837
79 | S121W | -1.19
80 | S121F | -1.69
81 | S121C | 1.13
82 | L78W | < -4
83 | L78Y | -0.164
84 | N117T | -0.361
85 | N117P | < -4
86 | N117K | -0.428
87 | Y59H | -1.26
88 | Y59R | -0.992
89 | Y59T | -0.817
90 | P118D | -0.15
91 | P118A | -1.03
92 | S53M | < -4
93 | K107S | -1.06
94 | K107H | 0.0996
95 | K107P | < -4
96 | V11H | -1.02

Row | Variant | apparent fitness score (log10)
97 | V11M | < -4
98 | V11D | < -4
99 | T6L | -0.158
100 | T6W | < -4
101 | I129R | < -4
102 | A125S | 0.596
103 | A125Y | < -4
104 | A125Q | 0.756
105 | A108I | -0.768
106 | A108N | < -4
107 | A108Q | < -4
108 | A108V | -0.267
109 | A97I | -1.28
110 | A97W | -1.16
111 | C47I | -0.709
112 | S52G | -0.932
113 | S52Q | -0.401
114 | S52E | -0.249
115 | S52P | 0.547
116 | S52H | -0.341
117 | Q110S | -1.24
118 | Q110A | -1.04
119 | Q110H | 0.639
120 | Q110T | < -4

Row | Variant | apparent fitness score (log10)
121 | V63R | -1.04
122 | V63K | 0.178
123 | V63H | < -4
124 | V63F | 0.198
125 | T16R | 0.368
126 | T16H | 0.179
127 | T16I | 0.73
128 | A2T | 0.845
129 | A2P | 0.0945
130 | A2V | -0.147
131 | V80R | -0.698
132 | V80P | < -4
133 | V80G | -0.331
134 | G15W | < -4
135 | G15R | -2.26
136 | P79D | < -4
137 | P79L | 0.173
138 | P79C | < -4
139 | D101K | -0.698
140 | D101G | -1.47
141 | D101V | -0.859
142 | D101I | -1.17
143 | D101S | < -4
144 | D101C | -0.784

Row | Variant | apparent fitness score (log10)
145 | T92L | 0.253
146 | T92R | 0.157
147 | T92I | 0.664
148 | P66L | -0.819
149 | P66C | -0.558
150 | V45F | < -4
151 | V45D | < -4
152 | V45Q | < -4
153 | V45K | < -4
154 | V45L | < -4
155 | S127R | -0.65
156 | S127K | -0.315
157 | T46H | < -4
158 | T46L | -0.591
159 | T46V | -0.215
160 | S36R | 0.691
161 | S36P | 0.337
162 | S36K | 0.336
163 | Y43R | < -4
164 | Y43G | < -4
165 | Y43P | -1.3
166 | Y43D | < -4
167 | A42T | -0.507
168 | S48L | -0.169

Row | Variant | apparent fitness score (log10)
169 | S48H | -0.0475
170 | S48N | 0.727
171 | E90R | 0.823
172 | E90T | 0.96
173 | E90P | -1.17
174 | D12C | -0.883
175 | D12I | -0.544
176 | D12T | -1.6
177 | M109W | < -4
178 | L91H | -0.641
179 | L91V | 0.175
180 | L91I | 0.104
181 | A31F | -1.43
182 | A31S | 0.109
183 | A31E | < -4
184 | A31N | < -4
185 | A31P | -0.329
186 | F8W | -0.226
187 | F8C | -0.815
188 | N99E | -0.798
189 | N99R | -0.826
190 | Q7C | -0.483
191 | Q7A | 0.862
192 | N13A | -0.523

Row | Variant | apparent fitness score (log10)
193 | I34K | -0.574
194 | I34S | 0.631
195 | I34F | 0.384
196 | F26P | -0.625
197 | V9G | -1.5
198 | V9D | < -4
199 | V9F | 0.411
200 | V21E | < -4
201 | V21L | -1.28
202 | V21D | < -4
203 | V21S | -1.61
204 | V21N | < -4
205 | I95P | < -4
206 | L113N | < -4
207 | L113C | 0.133
208 | L113V | 0.448
209 | T20E | 0.125
210 | T20P | -1.05
211 | T20Q | 0.97
212 | T20H | 0.732
213 | T20L | 0.671
214 | R84A | -1.17
215 | R84F | -1.71
216 | R84L | < -4

Row | Variant | apparent fitness score (log10)
217 | R84T | -1.28
218 | R84N | < -4
219 | R84E | -1.45
220 | R84W | -0.653
221 | G14E | 0.577
222 | G14A | 0.377
223 | G14D | -0.163
224 | W83M | < -4
225 | V73Y | 0.343
226 | V73I | 0.495
227 | V73L | 0.494
228 | V73R | 0.408
229 | V73K | 0.644
230 | N56M | -0.622
231 | N56F | -1.5
232 | V49Y | 0.0232
233 | V49D | -0.25
234 | V49K | -1.28
235 | V49S | 0.732
236 | F5C | -0.23
237 | F5I | -0.485
238 | F5W | -1.18
239 | F5A | -1.33
240 | F5R | -0.503

Row | Variant | apparent fitness score (log10)
241 | T98D | 1.02
242 | T98N | 0.335
243 | T98M | 0.671
244 | T98I | -1.61
245 | T98Y | -0.876
246 | N4D | -0.72
247 | N4V | 0.495
248 | G128S | -0.239
249 | G128C | < -4
250 | G128R | -1.12
251 | Q71S | 0.531
252 | Q71P | -0.748
253 | Q71N | -0.272
254 | Q71C | -1.12
255 | Q71V | -0.859
256 | Q71W | 0.0247
257 | L104E | -0.804
258 | L104G | 0.33
259 | A122M | -0.452
260 | A122P | < -4
261 | A122F | -0.653
262 | G74R | 0.329
263 | G74S | 0.687
264 | G74F | 0.278

Row | Variant | apparent fitness score (log10)
265 | N88Q | 0.233
266 | N88L | 0.636
267 | N88M | 0.392
268 | N88V | 0.654
269 | S40H | < -4
270 | N28S | -1.5
271 | N28E | -0.442
272 | W33A | < -4
273 | W33N | < -4
274 | W33F | -0.913
275 | G111K | < -4
276 | S24A | 0.0312
277 | A27G | 0.699
278 | A27P | 0.274
279 | N25I | < -4
280 | R50E | -1.47
281 | R50C | -0.0281
282 | K114H | 0.695
283 | K114Q | 0.579
284 | K114W | -0.635
285 | K114N | 0.32
286 | K114A | 0.882
287 | D18H | -1.15
288 | D18F | -1.3

Row | Variant | apparent fitness score (log10)
289 | D18V | -1.6
290 | D18M | < -4
291 | D18A | -0.0665
292 | A124H | -0.81
293 | I93F | -0.883
294 | I93L | -1.17
295 | I123N | < -4
296 | I123C | -1.1
297 | V76E | -1.56
298 | V76A | -0.863
299 | V76S | -0.931
300 | V76C | -1.29
301 | V76M | -0.558
302 | S85N | -0.999
303 | S85I | -1.11
304 | Q55E | -1.09
305 | Q55G | < -4
306 | V68A | 0.52
307 | V68S | 0.398
308 | A82I | < -4
309 | A82M | -1.4
310 | F96M | -0.66
311 | F96L | -1.52
312 | F96H | -0.728

Row | Variant | apparent fitness score (log10)
313 | V65G | -1.41
314 | V65S | -1.06
315 | V65A | -0.862
316 | V65F | -0.301
317 | V65P | -1.04
318 | A54L | -0.0605
319 | A54R | 0.429
320 | A54S | 0.235
321 | A54K | 0.47
322 | G17I | < -4
323 | G17W | < -4
324 | Y86R | 0.469
325 | Y86E | -1.47
326 | A69Q | -1.13
327 | A69K | -0.786
328 | A69W | < -4
329 | A69E | -0.723
330 | A69T | -1.24
331 | A69R | -1.48
332 | Q51L | 0.262
333 | Q51M | -0.165
334 | Q51Y | < -4
